SMILES strings stand for the structures. The list shows a part of the results.

This assay concerns HSkMC (human skeletal muscle cells). The assay is described as follows: cytotoxicity call (relative viability < 0.9). Particulars: 10 µM.
On to `C[C@@H]1CN([C@@H](C)CO)C(=O)c2cccc(NS(C)(=O)=O)c2O[C@H]1CN(C)S(=O)(=O)c1cccs1`, for which the cytotoxicity call was “inactive”.

Take `Cc1noc(C)c1NC(=O)N(C)C[C@@H]1Oc2ccc(NC(=O)C3CC3)cc2CC(=O)N([C@H](C)CO)C[C@@H]1C`: the cytotoxicity call was “inactive”.

In the case of `CNC(=O)CN1CC[C@]12CCN(C(=O)c1ccn(C)n1)C2`, the cytotoxicity call was “inactive”.

Take `CCC(C=CC(C)C1CCC2C3CCC4=CC(=O)CCC4(C)C3CCC12C)C(C)C` (stereo not given): the cytotoxicity call was “inactive”.

Regarding `C[C@@H]1CN([C@H](C)CO)C(=O)c2cc(NS(=O)(=O)c3ccccc3)ccc2O[C@@H](C)CCCCO[C@H]1CN(C)Cc1ccc(C(=O)O)cc1`, the cytotoxicity call was “inactive”.

`C[C@@H]1CN([C@@H](C)CO)S(=O)(=O)c2ccc(-c3ccncc3)cc2O[C@H]1CN(C)C(=O)c1ccc2c(c1)OCO2`: the cytotoxicity call was “inactive”.

For `COc1ccccc1C#Cc1cnc2c(c1)C(=O)N([C@@H](C)CO)C[C@H](C)[C@H](CN(C)C(=O)CC1CC1)O2`, the cytotoxicity call is “inactive”.

On to `C[C@H](CO)N1C[C@H](C)[C@@H](CN(C)Cc2ccncc2)Oc2ccc(NS(=O)(=O)c3cccs3)cc2C1=O`, for which the cytotoxicity call was “inactive”.

In the case of `C[C@@H](O)C#Cc1ccc2c(c1)O[C@H](CN(C)C(=O)Nc1ccccc1)[C@@H](C)CN([C@@H](C)CO)S2(=O)=O`, the cytotoxicity call was “inactive”.

Turning to `C[C@H]1CN([C@@H](C)CO)C(=O)Cc2cc(NC(=O)Cc3cn(C)c4ccccc34)ccc2O[C@@H]1CN(C)Cc1ccc(-c2ccccc2)cc1`, the cytotoxicity call is “inactive”.

For `COc1ccc(NC(=O)N(C)C[C@@H]2OCCCC[C@H](C)Oc3ccc(NS(=O)(=O)c4ccc(F)cc4)cc3C(=O)N([C@H](C)CO)C[C@@H]2C)cc1`, the cytotoxicity call was “inactive”.

As to `CC(C)CC#Cc1ccc2c(c1)O[C@@H](CN(C)C(=O)Cc1ccccn1)[C@H](C)CN([C@@H](C)CO)S2(=O)=O`, the cytotoxicity call was “inactive”.

For `C[C@@H]1CN([C@@H](C)CO)C(=O)c2c(c3ccccc3n2C)-c2ccccc2CO[C@H]1CN(C)Cc1ccc(C(=O)O)cc1`, the cytotoxicity call was “inactive”.

Regarding `Cc1ccc(S(=O)(=O)Nc2ccc3c(c2)C(=O)N([C@@H](C)CO)C[C@H](C)[C@H](CN(C)S(=O)(=O)c2ccccc2)O3)cc1`, the cytotoxicity call was “inactive”.

As to `Cc1ccc(S(=O)(=O)Nc2ccc3c(c2)C(=O)N([C@H](C)CO)C[C@H](C)[C@@H](CN(C)Cc2ccc(Cl)c(Cl)c2)OCCCC[C@@H](C)O3)cc1`, the cytotoxicity call is “inactive”.

As to `C[C@@H]1CN([C@H](C)CO)C(=O)c2cc(NC(=O)Nc3ccc4c(c3)OCO4)ccc2O[C@@H](C)CCCCO[C@H]1CN(C)Cc1ccc2c(c1)OCO2`, the cytotoxicity call is “inactive”.

Take `COc1ccc(S(=O)(=O)Nc2ccc3c(c2)C(=O)N([C@H](C)CO)C[C@@H](C)[C@H](CN(C)C(=O)Nc2ccc(F)cc2)OCCCC[C@H](C)O3)cc1`: the cytotoxicity call was “inactive”.

As to `Cc1noc(C)c1NC(=O)Nc1ccc2c(c1)C(=O)N([C@H](C)CO)C[C@@H](C)[C@@H](CN(C)S(=O)(=O)c1c(C)noc1C)O2`, the cytotoxicity call was “inactive”.

With `NC(Cc1ccc(O)c(O)c1)C(=O)O` (stereo not given), the cytotoxicity call is “inactive”.

With `C[C@H]1CN([C@@H](C)CO)C(=O)c2cc(NC(=O)Cc3cn(C)c4ccccc34)ccc2O[C@H]1CN(C)CC1CCCCC1`, the cytotoxicity call was “inactive”.

In the case of `C[C@@H]1CN([C@H](C)CO)C(=O)Cc2cc(NS(C)(=O)=O)ccc2O[C@@H]1CN(C)C(=O)Nc1ccc2c(c1)OCO2`, the cytotoxicity call is “inactive”.

As for `O=S(=O)(NCC[C@H]1CC[C@H](NS(=O)(=O)c2cccc(Cl)c2)[C@H](CO)O1)c1cccc(F)c1`, the cytotoxicity call is “inactive”.

As to `Cc1ccc(-c2cnc3c(c2)C(=O)N([C@@H](C)CO)C[C@H](C)[C@@H](CN(C)C(=O)Cc2cccnc2)O3)cc1`, the cytotoxicity call is “inactive”.

With `Cc1noc(C)c1NC(=O)Nc1ccc2c(c1)C(=O)N([C@H](C)CO)C[C@@H](C)[C@@H](CN(C)C(=O)NC(C)C)O2`, the cytotoxicity call is “inactive”.

Turning to `C[C@@H]1CN([C@H](C)CO)C(=O)c2cc(C#C[C@@H](C)O)cnc2O[C@@H]1CN(C)C(=O)Nc1ccc(C(F)(F)F)cc1`, the cytotoxicity call was “inactive”.

For `Nc1ncnc2c1ncn2[C@@H]1C=C[C@H](CO)O1`, the cytotoxicity call was “inactive”.

As for `COc1ccc(S(=O)(=O)Nc2ccc3c(c2)CC(=O)N([C@@H](C)CO)C[C@H](C)[C@@H](CN(C)Cc2ccc(C(=O)O)cc2)O3)cc1`, the cytotoxicity call was “inactive”.

As to `COc1ccc2c3c(n(c2c1)C)[C@@H](CO)N(C[C@]13CCN(CC1)S(=O)(=O)c1ccccc1)C(=O)c1cccnc1`, the cytotoxicity call was “inactive”.

For the compound `COc1ccc(S(=O)(=O)Nc2ccc3c(c2)C(=O)N([C@@H](C)CO)C[C@H](C)[C@H](CN(C)Cc2ccccc2)OCCCC[C@@H](C)O3)cc1`, the cytotoxicity call is “inactive”.

As to `COc1ccc([C@H]2[C@@H](C(N)=O)C2(C#N)C#N)cc1`, the cytotoxicity call was “inactive”.

Source of the values: the antibiotic and cytotoxicity screens of Wong et al. (2023).
